Data on 19 variants can be found in the RNAGym collection of RNA variant scans (doi:10.1073/pnas.2313332121).

Variants at the floor of the assay are shown more often than the library holds them.

To fix the notation:
B1: TPR 5TU (parent)
chain: GGAUCUUCUCGAUCUAACAAAAAAGACAAAUCUGCCACAAAGCUUGAGAGCAUCUUCGGAUGCAGAGGCGGCAGCCUUCGGUGGCGCGAUAGCGCCAACGUUCUCAACUAUGACACGCAAAACGCGUGCUCCGUUGAAUGGAGUUUAUCAUG

This series covers variants of B1. Briefly: polymerase ribozyme fitness, log enrichment relative to wild type (log ratio); higher = more active; in vitro selection for triplet polymerase activity. In short, it runs like this:
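Libraries of mutants in each subunit of a heterodimeric triplet polymerase ribozyme were generated by PCR and transcribed. In triplicate, each went through one in vitro selection round: annealing with biotinylated primer, partner subunit and triplets; frozen incubation at −7 °C; gel excision of extended constructs; streptavidin-bead capture; RT-PCR. Fitness, taken from Illumina sequencing of input and output libraries, is the logarithm of a genotype's enrichment over wild-type enrichment, averaged across replicates with inverse-variance weights. The logarithm is base 2, and genotypes needed ≥10 input reads and ≥1 read per output to be kept.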
Regarding GGAUCUUCUCGAUGUAACAAAAAAGACAAUUCUGCCACAAAGCUUGAGGGCAUCUUUGGCUGCAGAGGCGGCAGCCUUCGGUGGCGCGAUAUCGCCAACGUUCUCAACUAUGACACGCAAAACGCGUGCUCCGUUGAAUGGAGUUUAUCAUG [C14G A30U A49G C57U A60C G92U], the “polymerase ribozyme fitness (log ratio)” value was at most -4.2.

On to GGAUCUUCUCGAUGUAACAAAAAAGACAAAUCUGCCACAAAGCUUGAGAGCCUAUUCGGAUGCAGAGGCGGCAGCCUUAGGUGGCGUGAUAGCGCCAACGUUCUCAGCUAGGACAAGUAAAACGCGUGCUCCGUUGAAAGGAGUUUAUCAUG [C14G A52C C54A C79A C87U A107G U111G C116A C118U U139A], for which the “polymerase ribozyme fitness (log ratio)” value was at most -4.2.

GGAUCUUCUCGAUGUAACAAAAAAGACAAAUCUGCCACUAAGCUUGAGAGCAUCUUCGGAUGCAGAGGCGGCAGCCUUCGGUGGCGCGUUAGCGCCAACGUUCUCAACUAUGACACGCAAAACGUGUGCUCCGUUGAAUAGAGAUUAUCAUG [C14G A39U A89U C125U G140A U144A]: the “polymerase ribozyme fitness (log ratio)” value is at most -4.2.

With GGAUCUUCUCGAUGUAACAAAAAAGACAGAUCUGCCACAAAGCUUGAGAGCAUCUUUGGAUGCAGACGCGGCAGCCUUCGGUGACGUGAUAGCGCCAACGUUCUCAAUUAUGACACGCAAAACGCGUGCUCCGUUUAAUGGAGUUUAUCAUG [C14G A29G C57U G67C G84A C87U C108U G136U], the “polymerase ribozyme fitness (log ratio)” value is at most -4.2.

Consider GGAUCUUCUCGAUGUAACAAAAAAGACAAAUCUGCCUCAAAGCUUGAGAGCAUCUUCGGAUGCAGAGGCGGCAGCCUUCGGUGGCUCGUUAGCGCCAACGUUCUCAACUAUGACACGCUAAACGCGUGCUCGGUUGAAUGGAGUUUAUCAUG [C14G A37U G86U A89U A119U C132G], for which the “polymerase ribozyme fitness (log ratio)” value is at most -4.2.

For the variant GGAUCUUCUCGAUGUAACAAAAAAGUCAAAUCUGCCACAAAGCUUGAGAGCAUCUUCGGAUGCAGAAGCGGCAGCCUUCGGUGGCGCGAUAGCGCCAACGUUCUCAACUAUGACACGCAAAACGCGUGCUCCGGUGAAUGGAGUUUAUCAUG [C14G A26U G67A U134G], the “polymerase ribozyme fitness (log ratio)” value is at most -4.2.

Take GGAUCUUCUCGAUGUAACAAAAAAGACAGAUCUGCCACAAAGCUUGAGAGCAUCUUCGGAUGCAGAGGCGCCAGCCUUCGGUGGCGCGAUAGCGCCAACGUUCUCAACUAUGACACGCAAGACGCGUGCUCCGUUGAAUGGAGUUUAUCAUG [C14G A29G G71C A121G]: the “polymerase ribozyme fitness (log ratio)” value was at most -4.2.

As to GGAUCUUCUCGAUGUAACAAAAAAGACAAGUCUGCCACAAAGCUUGAGAGCAUCUACGGAUGCAGAGGCGGCAGCCUUCGGUGGCGCGAUUGCGCCAACGUUCUCAACUAUGACACGCAAAACGCGUGCUCCGUUGAAUGGAGUUUAUCAUG [C14G A30G U56A A91U], the “polymerase ribozyme fitness (log ratio)” value is at most -4.2.

Regarding GGAUCUUCUCGAUGUAACAAAAAAGACAAAUCUGCCACCAAGCUUGAGAGCAUGUUCGGAUGCAGAGGCGUCAGCCUUGGGUGGCGCGAUAGCGCCAACGUUCUCAACUAUGACACGCAAAACGCGUGCUCCGUUGAAUGGAGUUUAUCAUG [C14G A39C C54G G71U C79G], the “polymerase ribozyme fitness (log ratio)” value was at most -4.2.

GGAUCUUCUCGAUGUAACAAAAAAGACAAAUCUGCCACAAAGCUUGAGAGCGUCUUCGGAUGCAGAGGCGGCAGCCUUCGGUGGCGCGAUAGCGCCAACGGUCUCAUCUAUGACACGCAAAACGCGUGCUCCGUUGAAUGGAGUUUAUCAUG [C14G A52G U101G A107U]: the “polymerase ribozyme fitness (log ratio)” value was at most -4.2.

As for GGAUCUUCUCGAUGUAACAAAAAAGACGAAUCUGCCACAACGCUUGAGAGCAUCUUCGGAUGCAGAGGCGGCAGCCUUCGGUGGCGCGAUAGUGCCAACGUUCUCAACUAUGACACGCAAAACGCGUGCUCCGUUGAAUGAAGUUUAUCAUG [C14G A28G A41C C93U G141A], the “polymerase ribozyme fitness (log ratio)” value was at most -4.2.

Consider GGAUCUUCUCGAUGUAACAAAAAAGACAAAUCUGCCACAAAGCUUGAGAGCAUCUUCGGAUGCAGUGGCGGCAGCCUUCGGUGGCGGGAUAGCGCCAACGUUCUCAACUAUGACUCGCAAAACGCGUGCUCCGUUGAAUGGAGUUUAUCAUG [C14G A66U C87G A115U], for which the “polymerase ribozyme fitness (log ratio)” value is at most -4.2.

Take GGAUCUUCUCGAUGUAACAAAAAAGACAAAUCUGCCACAAAGCUUGCGAGCAUGUACGGAUGCAGAGGCGGCAGCCUUCGGUGGCGCGAUAGAGCCAACGUUCUCAAUUAUGACACGCAAAACUCGUACUCCGUUGAAUGGAGUUUAUCAUG [C14G A47C C54G U56A C93A C108U G124U G128A]: the “polymerase ribozyme fitness (log ratio)” value is at most -4.2.

Take GGAUCUUCUCGAUGUAACAAAAAAGACAAAUCUGCCACAAAGCUUGAGAGCGUCUUCGGAUGCAGAGGCGGCAGCCUUCGGUGGCGCGAUAGCGCCAACGUUCUCAACUAUGACACGCAAAACGCGUGCUCCGUUGAAUGCAGUUUAUCAUG [C14G A52G G141C]: the “polymerase ribozyme fitness (log ratio)” value was -3.34.

In the case of GGAUCUUCUCGAUGUAACAAAAAAGACAAAUCUGCCACAUAGCUUGAGAGCAUCUUCGGAUGCAGAGGCAGCAGCCUUCGGUGGCGCGAGAGCGCCAACGUUCUCAACUAUGACACGCACAACGGGUGGUCCGUUGCAUGGAGUUUAUCAUG [C14G A40U G70A U90G A120C C125G C129G A137C], the “polymerase ribozyme fitness (log ratio)” value is at most -4.2.

Turning to GGAUCUUCUCGAUGUAACAAAAAAGACAAAUCUGCCACAAAGCUUGAGAGCAUCUUCGGAUGCAGGGGCGGCAGCAUUCGGUGGCGCGAUAGCGCCAACCUUCUCAACUAUGACACGCAAAACGCGUGCUCCGUUGAAUGAAGCUUAUCAUG [C14G A66G C76A G100C G141A U144C], the “polymerase ribozyme fitness (log ratio)” value was at most -4.2.

For the variant GGAUCUUCUCGAUGUAACAAAAAAGACAGAUCUGCCACAAAGCUUGAGAGCAUCUUCGGGUGCAGAGGCGGCAGCCUUCGGUGGCGCGAUAGCCCCAAUGUUCUCAACUAUGAUACGCAAAACGCGUGCUCCGUUGAAUGGAGUUUAUCAUG [C14G A29G A60G G94C C99U C114U], the “polymerase ribozyme fitness (log ratio)” value is at most -4.2.

As for GGAUCUUCUCGAUGUAACAAAAAAGACUAAUCUGCCACAAAGCUUAAGAGCAUCUUCGGAAGCCGAGGCGGCAGCCUUCGGUGGCGCGAUAGCGCCAACGUUCUCAACUAUAACACGCAAAGCGCGUGCUCCGUUGAAUGGAGUUUAUCAUG [C14G A28U G46A U61A A64C G112A A122G], the “polymerase ribozyme fitness (log ratio)” value was at most -4.2.

As for GGAUCUUCUCGAUGUAACAAAAAAGACCAAUCUGCCACAAAGCUUGAGACCAUCUUCGGAUGCAGAGGCGGCAGCCUUAGGUGGCGCGAUAGUGCCAACGUUCUCAACUAUGACACGCAAAACGCGUGCUCCGUUGAAGGGACUUUAUCAUG [C14G A28C G50C C79A C93U U139G G143C], the “polymerase ribozyme fitness (log ratio)” value is at most -4.2.
